In paper PMC4336329 (PLoS ONE, 2015):
The whole screen tested about 310,000 compounds, of which about 14,000 (4.5%) showed an effect of 50% or more. The effect is printed as a negative number. Some of the results follow.

What follows are compounds tested against human ether-à-go-go-related gene (hERG) potassium channel (human, UniProt Q12809) (assay: primary screen, population patch clamp on CHO cells stably expressing hERG).
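Also: peak tail current of the secondary pulse compared with the same well before compound.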

Chain of human ether-à-go-go-related gene (hERG) potassium channel (Q12809 whole entry, looked up): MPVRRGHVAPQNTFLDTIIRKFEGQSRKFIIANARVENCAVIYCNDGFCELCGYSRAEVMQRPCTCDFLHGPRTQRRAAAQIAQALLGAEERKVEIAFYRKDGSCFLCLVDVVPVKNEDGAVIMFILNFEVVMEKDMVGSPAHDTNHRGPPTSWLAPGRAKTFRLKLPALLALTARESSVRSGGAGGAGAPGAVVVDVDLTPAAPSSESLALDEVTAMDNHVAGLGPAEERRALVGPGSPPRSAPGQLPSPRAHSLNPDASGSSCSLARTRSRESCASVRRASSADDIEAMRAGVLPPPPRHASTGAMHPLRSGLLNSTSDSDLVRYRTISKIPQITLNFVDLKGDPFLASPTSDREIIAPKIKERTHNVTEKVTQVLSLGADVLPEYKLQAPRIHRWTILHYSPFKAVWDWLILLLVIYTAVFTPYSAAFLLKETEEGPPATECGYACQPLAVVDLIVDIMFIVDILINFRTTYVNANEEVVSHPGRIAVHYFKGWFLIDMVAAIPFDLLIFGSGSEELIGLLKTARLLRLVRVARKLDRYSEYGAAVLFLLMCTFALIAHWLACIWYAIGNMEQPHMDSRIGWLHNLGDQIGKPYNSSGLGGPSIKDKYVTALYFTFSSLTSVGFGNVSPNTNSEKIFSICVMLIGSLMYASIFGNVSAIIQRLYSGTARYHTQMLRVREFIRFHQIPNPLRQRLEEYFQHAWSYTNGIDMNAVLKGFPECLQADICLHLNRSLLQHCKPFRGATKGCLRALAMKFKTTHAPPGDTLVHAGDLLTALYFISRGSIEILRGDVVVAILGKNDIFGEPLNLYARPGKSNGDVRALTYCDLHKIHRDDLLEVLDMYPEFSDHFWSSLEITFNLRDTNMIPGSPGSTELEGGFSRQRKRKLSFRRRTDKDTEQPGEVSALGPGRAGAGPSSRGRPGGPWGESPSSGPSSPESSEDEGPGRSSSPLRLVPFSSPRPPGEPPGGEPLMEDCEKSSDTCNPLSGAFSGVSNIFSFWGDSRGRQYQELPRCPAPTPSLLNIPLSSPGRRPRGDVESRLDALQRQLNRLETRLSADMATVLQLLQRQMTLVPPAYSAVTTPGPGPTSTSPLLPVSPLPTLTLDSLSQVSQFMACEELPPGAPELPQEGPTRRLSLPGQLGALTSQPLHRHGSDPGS

SMILES | hERG current change (%, negative = inhibition) at 10uM
COc1ccc2c(c1OC)C(=O)N(c1cccc(NC(C)=O)c1)C2 | 19.6%
COc1ccc(Oc2ccccc2C#N)cc1 | 1.78%
O=C1CC(N2CCN(c3ccccc3)CC2)C(=O)N1c1ccc2c(c1)OCO2 (stereo not drawn) | 22.4%
Cc1cccc(OCC(=O)N(Cc2nnc(-c3ccccc3Cl)o2)C2CC2)c1 | -54.2%
NC(=O)CN1CCN(c2ccccc2F)CC1 | 4.12%
COCC(=O)Nc1c(I)c(C(=O)NCC(O)CO)c(I)c(C(=O)N(C)CC(O)CO)c1I (stereo not drawn) | 19.4%
COc1ccc(N2CCN(c3nc4cc(C)ccc4cc3C=O)CC2)cc1 | 16.6%
CC(C)Oc1ccccc1-c1cc(C(=O)N/N=C/c2cccnc2)c2ccccc2n1 | -51.1%
C=C(C)c1cccc(C(C)(C)NC(=O)NC2CCCC2)c1 | 15.1%
CSC1=C(C#N)C(=O)NC(c2ccccc2O)S1 (stereo not drawn) | 15.5%
CCOC(=O)c1ccc(NC(=O)Cn2nnc(-c3ccccc3C)n2)cc1 | 2.76%
CC(Sc1n[nH]c(=O)[nH]c1=O)C(=O)OCc1ccccc1 (stereo not drawn) | -1.04%
COc1ccccc1N1CCN(C(=O)CCCC2=NS(=O)(=O)c3ccccc3N2)CC1 | 2.62%
CCC(=O)NNC(=O)CCC(=O)Nc1ccc(C)cc1C | 19.5%
CCOc1ccc(NC(=O)CCN2CCN(C)CC2)cc1 | 6.35%
CCOc1cc(C(=O)N2CCOCC2)ccc1OCc1ccccc1 | 10.9%
COc1cc2c(cc1OC)C(c1cccc([N+](=O)[O-])c1)=NCC2 | 1.22%
O=C1c2ccccc2C(=O)N1Cc1nc2ccccc2c(=O)n1-c1ccccn1 | 3.43%
Cc1ccc(CNC(=O)c2ccc(N3CCC4(CC3)CC(c3cccc(Br)c3)=NO4)c(NC(=O)c3ccco3)c2)cc1 | 9.37%

SMILES | hERG current change (%, negative = inhibition) at 10uM
CC(C)(C)c1ccc(NC(=O)C2=CC=CN3CCS(=O)(=O)N=C23)cc1 | -20.8%
COc1ccc(Oc2c(Cl)cnn(-c3ccc(Cl)c(Cl)c3)c2=O)cc1 | -1.78%
O=C(O)c1ccc(Cn2cc(/C=C\[N+](=O)[O-])c3ccccc32)o1 | 26.1%
COc1cccc(CN2CCCC(CNC(=O)c3ccc(F)cc3)C2)c1OC (stereo not drawn) | -49.1%
COCCn1c(C)cc(C(=O)COC(=O)c2cncc(Br)c2)c1C | -31.3%
O=C(O)C1CC=CCC1C(=O)NNS(=O)(=O)c1ccccc1 (stereo not drawn) | 11.5%
CCOC(=O)/C=c1\s/c(=C\c2ccc(C)cc2)c(=O)n1CC(=O)NCc1ccco1 | 11.7%
O=C(NCCc1c[nH]c2ccccc12)C(=O)c1c[nH]c2ccccc12 | 4.25%
Cc1ccc2c(c1)NC(=O)c1cc([N+](=O)[O-])ccc1O2 | 26.1%
N#Cc1ccc(Cl)cc1NC(=O)COC(=O)c1ccc(S(=O)(=O)N2CCCC2)cc1 | 0.0498%
Cc1cccc(C)c1NC(=O)Cn1nc(C)n2cccc2c1=O | 1.19%
COC(=O)c1c(NC(=O)COC(=O)[C@@H](NS(=O)(=O)c2ccccc2)C(C)C)sc2c1CCC2 | 0.637%
Cc1cc(NC(=O)COC(=O)[C@H](C)NC(=O)c2ccccc2)no1 | 7.21%
Cn1ncc(Br)c1C(=O)OCC(=O)Nc1nc(-c2ccccc2)cs1 | 9.93%
COc1ccc(CNC(=O)CCC(=O)N2C[C@H]3C[C@H](C2)c2cccc(=O)n2C3)cc1 | 3.43%
CC(c1ccccc1)n1c(SCC(=O)Nc2ccccc2)n[nH]c1=O (stereo not drawn) | 8.88%
O=C(NCCN1CCc2ccccc2C1)C1CC(=O)N(C2CCCC2)C1 (stereo not drawn) | 7.08%
Cc1ccccc1NS(=O)(=O)c1cc(S(C)(=O)=O)ccc1Cl | -5.25%
COc1ccccc1C(=O)Nc1ccnn1C1CCN(C)CC1 | -32.7%

SMILES | hERG current change (%, negative = inhibition) at 10uM
COCCCn1c(SCC(=O)Nc2ccccc2F)nnc1-c1ccoc1C | 15.7%
COC(=O)c1ccc(C2NC(=O)c3ccccc3O2)cc1 (stereo not drawn) | 15.9%
O=C(NCc1ccccc1)c1onc(CSc2ccc(Cl)cc2)c1C(=O)NCC1CC1 | 3.93%
CN(C)C(=O)N1CCC(C(=O)NCC2CCCO2)CC1 (stereo not drawn) | 7.74%
O=S(=O)(Nc1ccncc1)c1ccc(Cl)c(Cl)c1 | 18.4%
CCOC(=O)CCc1c(C)nc(SCC(=O)O)c(C#N)c1C | -2.59%
CCOC(=O)/C(=N\Nc1ccccc1Cl)N(C)C1CCS(=O)(=O)C1 (stereo not drawn) | -15.9%
CCOc1ccc(/C=C2\SC(N3CCc4ccccc4C3)=NC2=O)cc1 | 4.69%
O=C(NC(=S)NC(=O)c1ccccc1F)c1ccccc1F | 0.534%
O=C(Cc1ccccc1)Nn1cnc2ccccc21 | -0.197%
COc1cccc(-c2nc3n(n2)C(c2ccccc2Cl)C(C(N)=O)=C(C)N3)c1 (stereo not drawn) | -11.4%
CCOC(=O)C1(C(C)(C)CC)CC(CSc2nc3ccccc3[nH]2)OC1=O.Cl (stereo not drawn) | -36.6%
Cc1ccc(C(=O)NNc2c3ccccc3nc3ccccc23)cc1 | 9.56%
COc1ccc(NC2SC(=O)N(C)C2=O)cc1 (stereo not drawn) | 1.36%
CN1CCN(CCCCOc2ccccc2-c2ccccc2)CC1.O=C(O)C(=O)O | -38.2%
COc1ccc(CNc2ccccc2SC)cc1OC | 0.625%
Cc1c(CCO)c(=O)[nH]n1C(=O)c1c(F)cccc1F | -1.76%
COc1ccc(NC(=O)COc2cccnc2[N+](=O)[O-])cc1OC | 9.27%
Cc1ccccc1-c1nnn(CC(=O)c2ccc(S(=O)(=O)N3CCCC3)cc2)n1 | 14.5%
